# In the supplement of paper PMC12632987:
# In all, about 4,500 sequences were measured (“median log2 fold change of GCK-ALFA target abundance (FLAG IP / Myc IP barcode read proportion)”: median about 0.078, lowest 2% from about -0.6 on). The list shows a part of the results.
# B1: GBRAP_166_4983 (protein)
# chain: SNKEIVEELKKYIDELAEKAKEADEEEKLELVAEAAEKIAEAKKKGLSPEDLKELVKYMIEKFKKVGIPISTVEGALSILADLNEEEIDILIEAAEEVEK
# B2: GBRAP_74_6564 (protein)
# chain: SAAMIKEIKEVAKTKSLKEFSEFILKNIDKLDEEALLVALKELKAKLEAEKDTVTPEELEVVSEAAAALADKVFTSEASEEAVKAAAALIKAVVALEKKA
# B3: GBRAP_128_3166 (protein)
# chain: SDEEIVEKVRELVEKMIEASPEEARELAEEIVEIFLEADLETAEKIAEVIIELLPKLSEEHLEILIDVIREKLPLFTPEKQELAAEVMVEAGEEILELEE
# B4: GBRAP_160_4292 (protein)
# chain: SPELEKAKKLIEETFERTYALMEGQTAEERAVIVDVEYGALIYELSENPNVSDEALDKVDAIRDEVVATILANPDLTPEQLRALLEEARDRIIEVLEEDF
# B5: GBRAP_172_5005 (protein)
# chain: MVTLLELDLLGLSTEEAVARAVAALRAAHAATGGPIVVAVVTDTEETADAVEAALEAEAARLGADVRVVADAYRSEADRARVLAAARAEAIDLEYELEEA
# B6: GBRAP_160_4002 (protein)
# chain: SAEIEKLIKEIEELIAETKAEMEGLTPEERLTLVRGTVGEIIQLAEESPVVSDETLDKIAAIGDATVAAVKANADADLATWRAILDAYLAEVKALIEKDA
# B7: GBRAP_160_4671 (protein)
# chain: MEAIEKLLEEIREIMEEAVEFMEGESLEERIAVARVMTGEIILLLEESPLATDEVIEYADELGDELVEYIEENPDITPEELREKLEEFLEKLEEKLLEES
# B8: GBRAP_184_5348 (protein)
# chain: KTLDVLIEADTVDEAIEKLRKAAAEARAAGATLNVLIDVPINTVEEAEKLMDELARLAAEGIIAGTVGILNVSDDEEIIDVLVERADEAGIRLVLAINEE
# B9: GBRAP_11_2669 (protein)
# chain: KKEALEEALRLAREAEETARRLIEEGVDNEELRERLRRLLEELEELAEKHLDEAVKRDVRIARELFEEAEADPERALEYYERLAAALAVLAGNLELDLDE
# B10: GBRAP_160_4213 (protein)
# chain: MEKVEKIIKLLKEETERVISLIPELSAEEVANAAAVEFGAVLMEAVDLGEENDEILDTIAEAADRAVEVLLENKDASPEELAKKLKEIAEKAIEEIKKIA
# B11: GBRAP_139_3730 (protein)
# chain: DEAEKKVKEVVELTKKSLETGGEYVKEIAKLLNSMDEETQEKAAEAMAEVLESESFDKAEAFFDALIETLLTEYKNEDLADIVEAAANRALARVAVREEA
# B12: GBRAP_160_4750 (protein)
# chain: KEELKKLKEEVEEIFEEGIEILKEVPASEAPTVVRGTMGEVLMLVFSSEAASEELEDKVGAIADETEARAAANADAPVEEHIALLEEAKEKVLKAIEEEI
# B13: GBRAP_11_2820 (protein)
# chain: EKEKLKEGAKKAEELAKEIKELIESGNVTKEELEELLKKAEELLKFTKEYGDEDEAKLAEIALENIKEALKNPEKLKEYLTNALAAVRVLAGQYLLKYEE
# B14: GBRAP_160_4332 (protein)
# chain: MERFEALKKEIDEEFDETIELIEGESLEQVKVIISGTFGAIAMTFAEDPNVSDELVDFVIDVEDETLATLDANPDLSLEEIKALIEEARDKILEALDKEA
# B15: GBRAP_74_6499 (protein)
# chain: SAATEAAAEEFAALLRAGASYEELMAHLAKMNVEALNAAVIKATEVARANADELTEEQIDALAELADRVFAESEDPEAIKAAGELVKILYERELRLEAER
# B16: GBRAP_96_7101 (protein)
# chain: MLEEARKLVKELIEALDTDPERARELARELLEFPVEVIVEALVEEVKTPEEAYKVTRILLSLGDPKAEEVALEFAERSDGERSKAVIEAMEEYEREREAA
# B17: GBRAP_128_3388 (protein)
# chain: SQEEKLAKAKELIDAIVKADVETARVLTRELMELLGTLSLEDQEKVVEYLKSKLPELTAEKLDVIADVLREKRPEFDPESQNLIADAEVEALNEAEEKEE
# B18: GBRAP_39_5645 (protein)
# chain: EEEEEAELEFSYYEALGSKYMVDNGLSDEEVEEETKRLAEEVMKKYPEIKEEIEEALELAEKGSLFHKVALLGLLLEAKKGLPVEELKKHLKLLIKYFKS
# B19: GBRAP_78_6665 (protein)
# chain: EVEEELDKAIEHLDKAAKLTKQLPPEAQNELLDELVDAISEIVESEENGIDEEELEEALKEVEEAIELAKKLKTPEAEKLLEELEKAKEHIEKAIKLLKE
# B20: GBRAP_125_3073 (protein)
# chain: AEEEDLADLARIARALGFSDGEVEELVRLAAASSLRQALIALMLAEGAEETADAVARLTEEQARAVLREVAAELEANPDLTPEEVVALLLERARAAEAEA
# B21: GBRAP_160_4773 (protein)
# chain: SEKLEEAKKAIEEAKKEILEAIDTESPEEALTVVRGETGDIIMEVFELEFDNDELEDKIAEIMDKLVKEMEKNANASPEEKKKIVEKYAEEMIKTLEELS
# B22: GBRAP_48_5818 (protein)
# chain: MELDLEKLKKLVKETVEEMKEIYEEAKKEGLSDEDILKMIRAELGDLALELEEAGYDKAADWLRDPENSTELAEKLLELFKEGKYEEAVKYLLDKLLEVE
# B23: GBRAP_52_6186 (protein)
# chain: MREELRATVREILALVKAGKREEARALAEKLVAELSDEELKLLVEVLEEVAAAAPLEDADAVFETAEILAEAIEAAGKDEALAEDILAAAARALYKKELA
# B24: GBRAP_128_3571 (protein)
# chain: SHEEKLKKAEELIEKIINSDLEEARKYSEELVELIGESDEETREKIVELVLKALPKLTKEKLLVLADVLRENRPKLDPLAAEYAADIEVEALNQALELEE
# B25: GBRAP_166_4920 (protein)
# chain: SMEARVAAARRRLEAVIAEERADPRMTPAQITVAMADELAEILDEEEDEETRLAIVRAGLELAKAAGLDPRRLAELTAGLYGFSDEEEERVREIVEEILA
# B26: GBRAP_96_7089 (protein)
# chain: ELEEVKKLVKEFLEALDKDPEKARELAKELLKYPPELIAKALKELGVSDEEVAKLFRILFEEDPSKAAELIEAFTEIVSSETVVKMVEIAIELEEKREKE
# B27: GBRAP_160_4611 (protein)
# chain: SMKQEEFIKDIEELFEETIKMIEGETIEERANLIDVTIGEIIIEADELEVVSDESLDKIDEIRDEVVETILENPDLTDEEIKELIEEAREKIIEIVKEDE
# B28: GBRAP_14_3828 (protein)
# chain: MEKIREVLEEMAADLKEDFAAISPEKAAELAALVEEEIEKTLEEIEKTGDIEKALREMEERLLAGIDELLADEPEEVRATVKAAVRTEIAEALEEIDELL
# B29: GBRAP_14_3784 (protein)
# chain: MEAILAAAEETFAELRDILQEIAPEKAAEITALVDAALAALKARIKETGDPVAAARETFAALAAAVAALTADLPADVRARALGAVATEGANLELEVEELT
# Biological target: GABARAP, O95166
# Sequence (O95166 whole entry, the tested form may be a part): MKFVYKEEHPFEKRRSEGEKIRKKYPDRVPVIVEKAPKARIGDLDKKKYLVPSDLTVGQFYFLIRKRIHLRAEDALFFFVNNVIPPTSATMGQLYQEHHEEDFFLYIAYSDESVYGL
# Test: median log2 fold change of GCK-ALFA target abundance (FLAG IP / Myc IP barcode read proportion) (log2 ratio); each designed protein is fused to an ALFA-tag nanobody in HEK293 cells to bring the named protein to FLAG-tagged glucokinase (GCK); Myc marks an untargeted standard; higher = target protein stabilised (more abundant)
# Conditions: target protein: 3xFLAG-MCP-GCK-ALFA reporter; HEK293 landing pad (RPLP)
# Method in brief: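 HEK293 landing-pad cells received a recombined binder library fused to the ALFA nanobody and were induced with 2 μg mL^−1 doxycycline, then transfected with a plasmid encoding a FLAG-tagged target and a Myc-tagged standard. Lysates were collected after 48 h for anti-FLAG and anti-Myc immunoprecipitation, and the circular RNA barcodes were reverse transcribed, amplified and sequenced. Target abundance for each binder is the median log2 ratio of FLAG to Myc barcode read proportions. Barcodes had to reach a proportion of at least 10^−7 in both replicates, each binder needed at least 3 barcodes per replicate, a pseudocount of 10^−6 was applied, and the two replicates were pooled.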
row,Binder,median log2 fold change
1,B1,-0.191
2,B2,-0.329
3,B3,0.118
4,B4,-0.00871
5,B5,0.169
6,B6,-0.103
7,B7,-0.453
8,B8,-0.247
9,B9,0.252
10,B10,-0.00987
11,B11,0.195
12,B12,-0.145
13,B13,0.223
14,B14,-0.263
15,B15,-0.772
16,B16,0.297
17,B17,0.104
18,B18,0.172
19,B19,0.339
20,B20,-0.058
21,B21,-0.122
22,B22,0.19
23,B23,-0.0816
24,B24,0.107
25,B25,0.131
26,B26,0.223
27,B27,-0.246
28,B28,0.249
29,B29,-0.242
